# Source: the supplement of paper PMC12217912
# This is one part of the list. The full chains were built here from the parent and the listed change. Values near 0.05 are background.
# B1: TEV protease; numbered along this chain (parent)
# chain: MGESLFKGPRDYNPISSSICHLTNESDGHTTSLYGIGFGPFIITNKHLFRRNNGTLVVQSLHGVFKVKDTTTLQQHLVDGRDMIIIRMPKDFPPFPQKLKFREPQREERICLVTTNFQTKSMSSMVSDTSCTFPSGDGIFWKHWIQTKDGQCGSPLVSTRDGFIVGIHSASNFTNTNNYFTSVPKNFMELLTNQEAQQWVSGWRLNADSVLWGGHKVFMVKPEEPFQPVKEATQL
# Variants of: B1
# Assay: raw area under fraction-flipped curve 0-4 h after induction (AUC4h, not background-subtracted), DNA-recorder readout of cleavage of the substrate (dimensionless); higher = more cleavage of the substrate by the protease variant
# Conditions: temperature: 34 °C; time window: 0-4 h after rhamnose induction
# 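Further: Bxb1 expression induced with 0.2% (w/v) L-rhamnose at OD600 near 0.5, cultures sampled hourly, flipped fraction per protease–substrate barcode pair counted by paired-end Illumina sequencing.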
Variant,area with substrate ENLYFQC,area with substrate ENLYFQD,area with substrate ENLYFQG,area with substrate ENLYFQK,area with substrate ENLYFQL,area with substrate ENLYFQM,area with substrate ENLYFQN,area with substrate ENLYFQR,area with substrate ENLYFQS,area with substrate ENLYFQT,area with substrate ENLYFQW,area with substrate ENLYFQY,area with substrate ENLYFQI,area with substrate ENLYFQP,area with substrate ENLYFQQ,area with substrate ENLYFQV,area with substrate ENLYFQH,area with substrate ENLYFQF
MGESLFKGPRDYNPISSSICHLTNESDGHTTSLYGIGFGPFIITNKHLFRRNNGTLVVQSLHGVFKVKDTTTLQQHLVDGRDMIIIRMPKDFPPFPQKLKFREPQREERICLVTTNFQTKSMSSMVSDQSCTFPSGDGIFWKHWIQTKDGQCGSPLVSTRDGFIVGIHSASNFTNTNNYFTSVPKNFMELLTNQEAQQWVSGWRLNADSVLWGGHKVFMVKPEEPFQPVKEATQL [T129Q],0.109,0.0685,0.0894,0.0815,0.0653,0.0945,0.0917,0.0737,0.0977,0.0756,0.066,0.0862,,,,,,
MGESLFKGPRDYNPISSSICHLTNESDGHTTSLYGIGFGPFIITNKHLFRRNNGTLVVQSLHGVFKVKDTTTLQQHLVDGRDMIIIRMPKDFPPFPQKLKFREPQREERICLVTTNFQTKSMSSMVDDTSCTFPSGDGIFWKHWIQTKDGQCGSPLVSTRDGFIVGIHSASNFTNTNNYFTSVPKNFMELLTNQEAQQWVSGWRLNADSVLWGGHKVFMVKPEEPFQPVKEATQL [S127D],0.107,,0.0753,,0.0541,0.0973,0.0801,0.0562,0.0925,0.0479,0.0705,0.0914,0.0774,0.0709,0.0643,0.0594,,
MGESLFKGPRDYNPISSSICHLTNESDGHTTSLYGIGFGPFIITNKHLFRRNNGTLVVQSLHGVFKVKDTTTLQQHLVDGRDMIIIRMPKDFPPFPQKLKFREPQREERICLVTTNFQTKSMSSMVSDTSCTFPSGDGIFWSHWIQTKDGQCGSPLVSTRDGFIVGIHSASNFTNTNNYFTSVPKNFMELLTNQEAQQWVSGWRLNADSVLWGGHKVFMVKPEEPFQPVKEATQL [K142S],0.115,0.0707,0.0783,0.0649,,0.0865,0.0799,,0.0908,0.0492,,0.0774,,,,,0.0745,
MGESLFKGPRDYNPISSSICHLTNESDGHTTSLYGIGFGPFIITNKHLFRRNNGTLVVQSLHGVFKVKDTTTLQQHLVDGRDMIIIRMPKDFPPFPQKLKFREPQREERICLVTTNFQTKSMSSMVSDTSCTFPSGDGIFWKRWIQTKDGQCGSPLVSTRDGFIVGIHSASNFTNTNNYFTSVPKNFMELLTNQEAQQWVSGWRLNADSVLWGGHKVFMVKPEEPFQPVKEATQL [H143R],0.077,0.0616,0.0572,0.0563,0.0538,0.0689,0.054,0.0561,0.0583,0.0591,0.0573,0.05,,0.0629,0.076,0.0236,0.0472,
MGESLFKGPRDYNPISSSICHLTNESDGHTTSLYGIGFGPFIITNKHLFRRNNGTLVVQSLHGVFKVKDTTTLQQHLVDGRDMIIIRMPKDFPPFPQKLKFREPQREERICLVTTNFQTKSMSSMVSDTSCTFPSGDGIFWKCWIQTKDGQCGSPLVSTRDGFIVGIHSASNFTNTNNYFTSVPKNFMELLTNQEAQQWVSGWRLNADSVLWGGHKVFMVKPEEPFQPVKEATQL [H143C],0.092,,0.117,,0.0562,0.0781,0.0705,0.0586,0.0869,0.0423,,,0.0504,0.0623,0.0763,,,
MGESLFKGPRDYNPISSSICHLTNESDGHTTSLYGIGFGPFIITNKHLFRRNNGTLVVQSLHGVFKVKDTTTLQQHLVDGRDMIIIRMPKDFPPFPQKLKFREPQREERICLVTTNFQTKSESSMVSDTSCTFPSGDGIFWKHWIQTKDGQCGSPLVSTRDGFIVGIHSASNFTNTNNYFTSVPKNFMELLTNQEAQQWVSGWRLNADSVLWGGHKVFMVKPEEPFQPVKEATQL [M122E],0.14,,,0.054,0.0746,,,,0.0983,0.0683,,0.0814,0.0636,0.0602,,,,0.0629
MGESLFKGPRDYNPISSSICHLTNESDGHTTSLYGIGFGPFIITNKHLFRRNNGTLVVQSLHGVFKVKDTTTLQQHLVDGRDMIIIRMPKDFPPFPQKLKFREPQREERICLVTTNFQTKSQSSMVSDTSCTFPSGDGIFWKHWIQTKDGQCGSPLVSTRDGFIVGIHSASNFTNTNNYFTSVPKNFMELLTNQEAQQWVSGWRLNADSVLWGGHKVFMVKPEEPFQPVKEATQL [M122Q],0.0877,0.0812,0.0774,,0.0541,0.0741,0.0953,0.0605,0.103,0.0592,,0.0562,0.0621,0.0606,,0.0732,0.102,
MGESLFKGPRDYNPISSSICHLTNESDGHTTSLYGIGFGPFIITNKHLFRRNNGTLVVQSLHGVFKVKDTTTLQQHLVDGRDMIIIRMPKDFPPFPQKLKFREPQREERICLVTTNFQTKSMSSMVSDTSCTFPAGDGIFWKHWIQTKDGQCGSPLVSTRDGFIVGIHSASNFTNTNNYFTSVPKNFMELLTNQEAQQWVSGWRLNADSVLWGGHKVFMVKPEEPFQPVKEATQL [S135A],0.0868,0.0721,0.0716,0.0668,0.0414,0.0638,0.0542,0.0558,0.0793,0.0694,0.0567,,0.0649,0.0979,0.0604,0.0496,0.0622,
MGESLFKGPRDYNPISSSICHLTNESDGHTTSLYGIGFGPFIITNKHLFRRNNGTLVVQSLHGVFKVKDTTTLQQHLVDGRDMIIIRMPKDFPPFPQKLKFREPQREERICLVTTNFQTKSMSSMVSDTSCTFPSGDGIFWKHWIQTKDGQCGSPLVSTRDGFIVVIHSASNFTNTNNYFTSVPKNFMELLTNQEAQQWVSGWRLNADSVLWGGHKVFMVKPEEPFQPVKEATQL [G166V],0.0491,0.0611,,0.0449,0.0462,0.045,0.0472,0.0536,0.0514,0.0582,0.0555,,0.0491,0.055,,,0.0546,0.0409
